From the supplement of paper PMC11417369 come the findings set out here.

± gives the standard deviation of the averaged measurements. The list shows a part of the results.

The experiment concerns PfAP2-I AP2 domain 3 (GST-tagged). The experiment is described as follows: gcPBM binding intensity (ln(normalized median fluorescence intensity)); higher = stronger DNA binding. The method, boiled down:
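Plasmodium falciparum DNA-binding domains carrying a GST tag were expressed in E. coli and applied for 1 h, at about 25 μg on average, to an Agilent 4 × 180k array. The array held primer-extended double-stranded 36-bp intergenic genomic probes together with negative controls, and binding took place in 1× PBS with 1% milk, 0.2 mg/ml BSA, 0.5% salmon testes DNA and 0.03% Triton X-100. An Alexa488 anti-GST antibody detected bound protein, and the array was scanned at 488 nm. Binding intensity is taken as the highest Masliner-normalised natural-log median intensity across replicate spots of either probe orientation.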
On to “TCTATGTAGTTTTTATGTACTAAATAAATAAATAAA [XGTACX_site2599]”, for which the “gcPBM binding intensity (ln)” value is 7.94 ± 0.54.
Consider “TAGAAGCAGAAACACACACACATACATACACATACA [CACACA_site1467]”, for which the “gcPBM binding intensity (ln)” value was determined as 7.91 ± 0.4.
The result for ACTATTAACAGTGTAGTGCAAAAAGGTTAATTATTA reads 10.5 ± 0.34; that for “TAAATGTCCTTATTTGCACACACACCGATAAGAAAT [CACACA_site5723]”, 9.79 ± 0.15.
For the sequence “TTTTCAATATATATTTGTACTTTATTTTATGATATT [GTGCAC_negctrl_site732]”, the “gcPBM binding intensity (ln)” value is 7.75 ± 0.6.
As for “GCATTCATTTTTAATACACACAAAAAAAAAATAAAA [CACACA_site2408]”, the “gcPBM binding intensity (ln)” value came to 8.09 ± 0.15.
The result for “TACATATATATTTGTTCACACACACCCAAAAAAAAA [CACACA_site8788]” reads 8.2 ± 0.37; that for “TTCTTTTATAAAAGTAGTACAATTATATTGTAATTA [XGTACX_site2855]”, 7.915 ± 0.064.
The result for “TCTTTTATATTGTAGAGTACATATTTTCAATATATA [XGTACX_site5586]” reads 7.76 ± 0.35; that for “GTGATACGCTATAGGACACACGCTTAATAATTATAA [CACACA_site1694]”, 7.84 ± 0.3; that for “AAATTGTCAAAACACGCACACACATATACATAATAA [CACACA_site1743]”, 8.23 ± 0.54.
The result for “ATCATAAATTATTATACACACAATACGTGACCTATT [CACACA_site1906]” reads 8.06 ± 0.62.
For TTTTAAGGTGTGAAGGTGCAAAAAGGTAAATAGGAA, the “gcPBM binding intensity (ln)” value amounted to 11.2 ± 0.56.
The result for “AAAATACATAAACACACACACACACCGATATATATA [CACACA_site9186]” reads 8.28 ± 0.67; that for “CACAAACACCCAAACACACACACACCGACATACATA [CACACA_site4410]”, 7.97 ± 0.4.
The result for “TAAACAGAAGCACATACACACACTCAAAAAAAAAAA [CACACA_site3051]” reads 8.18 ± 0.53.
The result for “AAAAAAAAAAAAGGCACACAAACATATGTAGACATA [CACACA_site2284]” reads 8.09 ± 0.32; that for “TCGTGTGTAATATTATATATATATATATAATATATA [TGCATGCA_negctrl_site289]”, 8.38 ± 0.15.
Regarding “CAATTTGGTGTACAGGTGCACATGCCTCACGATAAA [GTGCAC_site9650]”, the “gcPBM binding intensity (ln)” value is 10.2 ± 0.51.
The result for “AAAAAAAAAAAAAAATGTACATATTAAGTATAATTA [XGTACX_site4616]” reads 8.1 ± 0.47; that for “GAAAAATGTAAATACATATATGTACACAAATATATA [GTGCAC_negctrl_site557]”, 7.74 ± 0.44; that for “TTAGCTCAATTTTTGGGTACACACAAATGTATAATA [XGTACX_site5003]”, 7.71 ± 0.3.
The result for “AATATTTATAAATTTACACACACACGGGTGAACATA [CACACA_site6979]” reads 7.79 ± 0.62; that for “TTTAATTCCATAAGTAAACACACAAATGCCAAAATT [CACACA_site9049]”, 8.04 ± 0.7; that for “ATTCTAAATTAAAATACACACATATATACATAATAT [CACACA_site2792]”, 7.76 ± 0.48.
The result for “TTCTGCAGCAATGTTTTTTTTAAATATTTATATGGT [CACACA_negctrl_site1815]” reads 8.16 ± 0.52; that for “AAAAAAATAACAAAGTGTACTTTTATATTTTACATA [XGTACX_site8954]”, 7.67 ± 0.29; that for ACCCATTTTAATTTAGTGCACATTTTACCTTTATAC, 11.4 ± 0.35.
With “GCTAGTTTTTTTTGGCGTACAGTACCGGTTTACTTT [XGTACX_site2606]”, the “gcPBM binding intensity (ln)” value is 8.52 ± 0.31.
The result for “TTTTTTTCTTTTTCAAAAAAAAAAAAAAAAAAAATA [GTGCAC_negctrl_site329]” reads 7.3 ± 0.22.
The result for “CATACCATACATAAAACACACAAAATTTACATAATA [CACACA_site3100]” reads 7.71 ± 0.4.
“TATAGTTTTATTATTTATGTGTTAAAATTATACAAG [TGCATGCA_negctrl_site246]”: the “gcPBM binding intensity (ln)” value was found to be 7.46 ± 0.38.
The result for “TTCCTCTTAATATGTGCACACTAAATTATAACATAA [CACACA_site3260]” reads 10.19 ± 0.021; that for “TATAAATATATATGTACACACATATACATGTTGAAT [CACACA_site3118]”, 7.79 ± 0.35; that for “TATAAACATAAATATACACACAAACATCTATGTATT [CACACA_site4804]”, 7.67 ± 0.23.
As to “AAAAAAAAATATCACACACACATAAATATAAACCAA [CACACA_site2279]”, the “gcPBM binding intensity (ln)” value was determined as 7.84 ± 0.54.
The result for “AGGCACTTATAATAATGTACATAAATAAAAAGAAAA [XGTACX_site6037]” reads 7.89 ± 0.54; that for “TAAAACATCAAGGGGTGTACAAAAAAGATGAACAGG [XGTACX_site6929]”, 8.48 ± 0.67.
Consider “AAAAAAAAAAAAACTACACACATAAAATATATTGTG [CACACA_site805]”, for which the “gcPBM binding intensity (ln)” value stood at 7.72 ± 0.52.
The result for “ATTGGGTTCATCAGCACACACAACATCATGTAATAA [CACACA_site5093]” reads 7.96 ± 0.54.
As to “AGAGCATAATAAAACACACACATACATACATATATA [CACACA_site935]”, the “gcPBM binding intensity (ln)” value amounted to 7.91 ± 0.28.
The result for “TATGTAAAAACAGGCACACATATATCATATATATAT [CACACA_site619]” reads 9.055 ± 0.007.
The result for “TATGTATGCCTGTTTTGTACTTAAGAAAATGTTGCT [XGTACX_site8443]” reads 7.72 ± 0.51; that for “AAAAAAAAAAAAAAAAGTACATAATATAAAATCTAA [XGTACX_site6019]”, 8.53 ± 0.52; that for CATTATGTACAAAAAGTGCAATATATATTAACACTG, 11 ± 0.43.
